Results reported in PubChem BioAssay AID1030 (National Center for Advancing Translational Sciences (NCATS), 2008).
Hit rate of the full screen: of about 220,000 compounds, about 16,000 (7.3%) were called active. The shares of active, inactive and inconclusive entries below differ from those in the screen. The call rests on the fitted dose curve; in most records, active means well fitted inhibition curve with a large enough effect (not every such curve was filed as active); inconclusive means small, poorly fitted or top-dose-only effect, or another doubt; inactive means no such curve, though single readings can be large or run the other way. No potency is given beside an inconclusive call; the fits are too rough. Some structures have more than one record in an assay (separate samples or runs), and their calls can disagree.

target: Aldehyde dehydrogenase 1A1 (Homo sapiens) (UniProt P00352); experiment: qHTS Assay for Inhibitors of Aldehyde Dehydrogenase 1 (ALDH1A1); conditions: Purified ALDH1A1, NADH fluorescence, propionaldehyde substrate; series mostly up to 75.3 µM; activity, negative = inhibition: at the top concentration;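 on activity, negative = inhibition: plate controls were no enzyme wells and a reference inhibitor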
Chain of UniProt P00352 (P00352 whole entry, looked up): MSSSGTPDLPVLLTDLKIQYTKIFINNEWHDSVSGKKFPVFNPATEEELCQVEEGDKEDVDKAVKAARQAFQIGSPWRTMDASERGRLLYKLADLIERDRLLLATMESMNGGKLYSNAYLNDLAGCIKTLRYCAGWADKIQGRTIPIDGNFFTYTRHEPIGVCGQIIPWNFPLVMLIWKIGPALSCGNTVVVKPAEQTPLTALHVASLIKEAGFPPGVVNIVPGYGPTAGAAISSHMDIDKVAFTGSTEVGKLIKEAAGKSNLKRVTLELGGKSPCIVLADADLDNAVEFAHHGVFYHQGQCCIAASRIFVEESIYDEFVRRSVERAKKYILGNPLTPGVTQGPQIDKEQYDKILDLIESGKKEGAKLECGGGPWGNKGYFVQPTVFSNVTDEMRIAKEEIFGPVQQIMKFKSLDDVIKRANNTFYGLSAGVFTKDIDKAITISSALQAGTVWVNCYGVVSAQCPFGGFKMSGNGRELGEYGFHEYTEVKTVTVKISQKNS
Potency means the concentration at half of the fitted maximal effect; tags describe the fitted curve by direction and shape.

Row | Compound | Potency | activity, negative = inhibition
1 | N#Cc1c(/N=C/C=C/c2ccccc2)sc2c1CCCC2 | active: 7.94 µM | –
2 | CN(CC(=O)Nc1ccc(Cl)cc1)Cc1cc(=O)n2ccsc2n1 | inconclusive [inhibitor, single point] | –
3 | CCC(C)(c1nnnn1-c1c(C)cccc1C)N(N=O)c1ccccc1Cl (stereo not given) | – | inactive: 13%
4 | COc1ccccc1-c1nc(C#N)c(N2CCCCCC2)o1 | inconclusive [inhibitor, partial curve] | –
5 | Cc1ccc(S(=O)(=O)/N=C(/c2ccc(F)cc2)N2CCCCC2)cc1 | active: 25.1 µM | –
6 | CCCNC(=O)c1ccccc1NC(=O)c1ccc(CSc2ccccc2)cc1 | inconclusive [inhibitor, partial curve] | –
7 | Cc1ccc(/C=C(\NC(=O)c2ccccc2)C(=O)OCc2ccccc2)cc1 | – | inactive: -8.57%
8 | O=C(C[n+]1cccc(CNC(=O)c2ccc(OC(F)F)cc2)c1)Nc1ccc(F)cc1 | – | inactive: -0.746%
9 | CS(=O)(=O)Nc1cccc(-c2cc(NCc3ccccc3)ncn2)c1 | inconclusive [inhibitor, single point] | –
10 | CCCCN1C(=O)/C(=C2\SC(N3CCCCC3)=NC2=O)c2ccccc21 | active: 10 µM | –
11 | CC(NC(=O)COC(=O)[C@@H]1CCCN1S(=O)(=O)c1ccccc1F)C12CC3CC(CC(C3)C1)C2 (stereo not given in full) | inconclusive [inhibitor, single point] | –
12 | Nc1ccccc1Sc1cc(Cl)nnc1Cl | active: 25.1 µM | –
13 | CCSc1nnc(CNC(=O)C23CC4CC(CC(C4)C2)C3)n1Cc1ccccc1 | – | inactive: -2.87%
14 | CCCCNC(=O)C1(c2ccc(OC)cc2)CCOCC1 | inconclusive [inhibitor, single point] | –
15 | CN(C(=O)c1cccs1)c1ccccc1C(=O)O | inconclusive [inhibitor, partial curve] | –
16 | Cc1cccc(C2c3[nH]c4ccccc4c3CCN2C(=O)c2cc(CC(C)C)[nH]c(=O)n2)n1 (stereo not given) | – | inactive: 0.652%
17 | CC(NC(=O)COC(=O)c1ccc(Cl)cc1O)c1ccc(F)cc1 (stereo not given) | inconclusive [inhibitor, single point] | –
18 | COc1ccnc(CSC(N)=Nc2ccccc2OC)c1 | active: 25.1 µM | –
19 | CCOC(=O)c1nn(-c2ccccc2F)c2nc(Nc3ccccc3)cc(=O)n12 | inconclusive [inhibitor, single point] | –
20 | CC1(C)CC(=O)c2cc(C(=O)NNc3ccccc3)c(=O)n(-c3ccccc3)c2C1 | inconclusive [inhibitor, single point] | –
21 | CCOC(=O)c1sc(NC(=O)CSc2nnc(Cc3ccccc3)o2)c(C#N)c1C | active: 0.562 µM | –
22 | Cc1ccc(CNC(=O)CCCc2ccccc2)cc1 | – | inactive: 4.23%
23 | C#CCCCO/N=C1/C[C@@H](O)[C@@H](O)[C@@H]2[C@@H]3C(=O)N(C(C)(C)C)C(=O)[C@H]3CC[C@H]12 | – | inactive: 5.57% [at 13.5 µM]
24 | COc1ccc(-c2ccc(=O)n(CC(=O)Nc3ccc4c(c3)OCCO4)n2)cc1 | inconclusive [inhibitor, partial curve] | –
25 | CC(C)CC(=O)Nc1ccc(-c2nc3ccccc3c(=O)o2)cc1 | inconclusive [inhibitor, partial curve] | –

Row | Compound | Potency | activity, negative = inhibition
26 | CCCCOCC(O)CCc1n[nH]c(=S)n1-c1ccccc1 (stereo not given) | inconclusive [inhibitor, single point] | –
27 | CC1CCN(c2ccccc2NC(=O)c2ccc(F)cc2)CC1 | inconclusive [inhibitor, partial curve] | –
28 | COC(=O)c1cc(S(=O)(=O)Nc2cc(S(=O)(=O)N(C)C)ccc2C)oc1C | – | inactive: -8.91%
29 | Cc1cccn2c(=O)c(C=O)c(N3CCN(c4ccc(F)cc4)CC3)nc12 | inconclusive [inhibitor, single point] | –
30 | CCN1CCC[C@@H]1CNC(=O)c1cc(S(N)(=O)=O)ccc1OC | – | inactive: 2.12%
31 | Cc1nn(CCC(=O)NNC(=S)Nc2cccc(Cl)c2)c(C)c1[N+](=O)[O-] | inconclusive [inhibitor, partial curve] | –
32 | Cc1ccc(S(=O)(=O)N(c2nc(N(C)C)nc(N(C)C)n2)n2cnnc2)cc1 | active: 5.01 µM | –
33 | CC(C)C(=O)Nc1ccc(C(=O)N2CCN(C(=O)c3ccco3)CC2)cc1 | – | inactive: -19.6%
34 | COCCN1Cc2cccc(C(=O)Nc3ccc(C)c(C)c3)c2C1=O | inconclusive [inhibitor, single point] | –
35 | CCc1nc(SCC(=O)Nc2cc(C)on2)c2c(=O)n(C)c(=O)n(C)c2n1 | inconclusive [inhibitor, single point] | –
36 | CC(=O)N(C)c1ccc(NC(=O)c2cnn(C)c2)cc1 | – | inactive: -3.48%
37 | Cn1c(Cn2nnc(-c3ccccc3)n2)nnc1SCc1ccccc1Cl | inconclusive [inhibitor, single point] | –
38 | N#CCn1c2ccccc2c2nc3ccccc3nc21 | inconclusive [inhibitor, partial curve] | –
39 | CCS(=O)(=O)N1CCN(Cc2ccc([N+](=O)[O-])cc2)CC1 | inconclusive [inhibitor, partial curve] | –
40 | C=C[C@@](C)(O)CC[C@@H]1[C@@]2(C)CCCC(C)(C)[C@@H]2CC[C@@]1(C)O | active: 39.8 µM | –
41 | CC1CCc2sc3nc(N4CCN(CCO)CC4)n4ncnc4c3c2C1 (stereo not given) | inconclusive [inhibitor, partial curve] | –
42 | CN(c1ccccc1)c1nc(N)c(C#N)c(CC#N)c1C#N | inconclusive [inhibitor, single point] | –
43 | O=C(OCc1csc(-c2ccccc2)n1)c1ccc(O)cc1 | – | inactive: -2.68%
44 | N#C/C(=N\Nc1ccc(S(=O)(=O)N2CCc3ccccc32)cc1)C(N)=S | active: 6.31 µM | –
45 | Cc1ccccc1OCC(=O)NNC(=O)c1ccc(-c2ccccc2)cc1 | – | inactive: 5.94%
46 | C=CCOC(=O)N[C@H](/C(C(=O)OC)=C(\C)NCc1ccccc1)c1cccc(F)c1 | – | inactive: -2.27%
47 | Nc1nnc(Cc2ccccc2)s1 | active: 11.2 µM | –
48 | c1ccc(-c2nc(N3CCCC3)nc3ccccc23)cc1 | inconclusive [inhibitor, single point] | –
49 | C/C(=N/NC(=O)CNC(=O)c1ccccn1)c1ccc([N+](=O)[O-])cc1 | inconclusive [inhibitor, single point] | –
50 | COc1cc2c(cc1OC)C(C(C(=O)N(CCc1ccc(OC)c(OC)c1OC)CCc1ccc(OC)c(OC)c1OC)c1ccccc1)=NCC2 (stereo not given) | inconclusive [inhibitor, single point] | –

Row | Compound | Potency | activity, negative = inhibition
51 | Cc1c(NC(=O)C(C)c2ccc(CC(C)C)cc2)c(=O)n(-c2ccccc2)n1C (stereo not given) | inconclusive [inhibitor, single point] | –
52 | CC(=O)c1c(OCC(=O)O)ccc2c(C)cc(=O)oc12 | – | inactive: -8.13%
53 | Cc1c(Cl)cccc1N=Cc1ccc([N+](=O)[O-])s1 | inconclusive [inhibitor, single point] | –
54 | CCOc1ccc(CC(=O)NCc2cn3c(C)csc3n2)cc1 | – | inactive: 4.33%
55 | CCn1c(SCC(=O)Nc2nc(-c3ccccc3)cs2)nnc1-c1ccccc1 | inconclusive [inhibitor, single point] | –
56 | O=C(NCCSc1ccccc1)c1cncc(Br)c1 | active: 25.1 µM | –
57 | Cc1ccc2c(c1)N(CC(=O)O)C(=O)CO2 | – | inactive: -6.27%
58 | O=C(CCBr)N1CCN(C(=O)CCBr)CC1 | active: 0.891 µM | –
59 | CC(NC(=O)C(C(=O)c1cccc([N+](=O)[O-])c1)n1cc(Cl)ccc1=O)c1ccccc1 (stereo not given) | – | inactive: 2.12%
60 | Cn1nc(C(F)(F)F)c(CNC(=O)C(C)(C)CCl)c1N1CCOCC1 | – | inactive: 3.57%
61 | CCc1nc2ccccc2c(C(=O)OCc2nnc(-c3ccccc3)o2)c1C | inconclusive [inhibitor, single point] | –
62 | O=C(Nc1cccc(NC(=O)c2ccc(Br)o2)n1)c1ccc(Br)o1 | inconclusive [inhibitor, single point] | –
63 | O=C1Nc2ccccc2C12OC1CCCCC1O2 (stereo not given) | inconclusive [inhibitor, single point] | –
64 | CCCCC1C(=O)N(c2ccccc2)N(c2ccc(O)cc2)C1=O (stereo not given) | inconclusive [inhibitor, single point] | –
65 | CCc1nn2c(=O)cc(COc3ccc(/C=C4\C(=N)N5N=C(C)SC5=NC4=O)cc3)nc2s1 | active: 8.91 µM | –
66 | CCSc1nnc(NC(=O)CSc2nnc(CNC(=O)c3ccccc3F)o2)s1 | inconclusive [inhibitor, single point] | –
67 | CC(=O)Nc1ccc2nc(SCC(=O)N3CCOCC3)sc2c1 | – | inactive: 3.94%
68 | CC(=O)Nc1cccc(C(=O)/C=C/c2ccc(N(C)C)cc2)c1 | inconclusive [inhibitor, single point] | –
69 | O=C(CN1CCN(Cc2ccccc2Cl)CC1)N/N=C/C=C/c1ccccc1[N+](=O)[O-] | – | inactive: -10.2%
70 | COc1ccc(-n2c(-c3cccc(OC)c3)nc(=S)c3c2CCCC3)cc1 | inconclusive [inhibitor, partial curve] | –
71 | Cc1ccccc1-n1cnnc1SCC(=O)N1CCN(c2ccccc2)CC1 | inconclusive [inhibitor, partial curve] | –
72 | CCN(CC)S(=O)(=O)c1ccc(C(=O)Nc2nnc(-c3ccco3)o2)cc1 | – | inactive: 3.47%
73 | Cc1cc(O)c2c(c1O)C(=O)c1c(O)cc(C)c(O)c1C2=O | – | inactive: -8.5%
74 | Nn1c(SC/C=C/c2ccccc2)nnc1-c1cccnc1 | active: 12.6 µM | –
75 | O=C(OCCN1C(=O)c2ccccc2C1=O)C1CCN(S(=O)(=O)c2cccs2)CC1 | – | inactive: 8.87%
